Results: PubChem BioAssay (Tox21)
Inconclusive results, whose numbers are uncertain, are shown with a selection of clear calls. No potency is given beside an inconclusive call; the fits are too rough. Some structures have more than one record in an assay (separate samples or runs), and their calls can disagree. Active and inactive are the calls of the source. Calls come from the whole dose curve; as a rule, active = well fitted cell-killing curve with a large enough effect in the repeat runs; inconclusive = weak or mixed curves, or effect the other way; inactive = flat fitted curve, though single readings scatter.

Assay: Caspase-3/7 induction in HepG2 cells by small molecules, qHTS cell viability counter screen (AID 1346981); note: nearly all actives have a fitted effect of over 30% in size
Conditions: CellTiter-Fluor fluorescence, 17 h; series mostly up to 92.4 µM
Summary of the method: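 Steps: seed 2,000 HepG2 cells per well; incubate 5 hr at 37 C; pin-add compounds in DMSO; incubate 16 hr; add CellTiter-Fluor; after 1 hr at 37 C and 5% CO2, read fluorescence.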
Potency is the fitted concentration of half-maximal effect; tags give direction and shape of the fitted curve.

| SMILES | Potency |
| --- | --- |
| CN(C)C(=O)C(c1ccccc1)c1ccccc1 | inconclusive [rising, partial curve, poor fit] |
| COCCl | active: 35.7 µM |
| CC(C)OS(C)(=O)=O | inactive |
| NN=C(N)N | inactive |
| O=S(=O)(O)F | inconclusive [rising, single point] |
| O=C(NC(=O)c1c(F)cccc1F)Nc1ccc(Cl)cc1 | inconclusive [cytotoxic, single point] |
| Nc1nc(N)nc(Cl)n1 | inactive |
| CC(O)CCO (stereo unspecified) | inactive |
| O=C1CC(=O)NC(=O)N1 | inactive |
| COc1cccc(C(=O)NN(C(=O)c2cc(C)cc(C)c2)C(C)(C)C)c1C | inconclusive [cytotoxic] |
| O=c1[nH]c2ccccc2o1 | inactive |
